# From the BET-seq Pho4 binding data (Le et al. 2018)
# This is one part of the list. Values were computed here from the reads of four pooled replicates and scatter widely.
# Molecular target: T1, Pho4 (S. cerevisiae) (UniProt P07270)
# T1 sequence: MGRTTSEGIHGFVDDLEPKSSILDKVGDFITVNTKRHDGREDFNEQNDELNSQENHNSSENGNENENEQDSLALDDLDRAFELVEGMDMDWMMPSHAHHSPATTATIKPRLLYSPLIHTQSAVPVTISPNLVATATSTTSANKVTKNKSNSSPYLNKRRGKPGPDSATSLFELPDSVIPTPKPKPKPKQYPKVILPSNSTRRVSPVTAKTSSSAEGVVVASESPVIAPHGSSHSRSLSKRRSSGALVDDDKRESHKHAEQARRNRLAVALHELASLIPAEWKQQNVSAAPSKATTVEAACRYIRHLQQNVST
# Test: relative binding free energy (BET-seq); higher = weaker binding
# Conditions: reference: library average
row,Sequence,relative binding free energy [kcal/mol]
1,AAAAACACGTGGTTTG,-0.07
2,AGTAGCACGTGGAAAG,-0.02
3,CGTTACACGTGAGTTA,0.34
4,CGATTCACGTGTTGGC,0.34
5,AAGGACACGTGTTAGT,0.03
6,TTTGGCACGTGTTTTG,0.06
7,TAGGTCACGTGTACAG,0.06
8,TTAATCACGTGCGTAT,0.07
9,AGGGGCACGTGCTCTG,-0.2
10,TGTGTCACGTGTTATT,0.06
11,TCCGTCACGTGGCGGT,0.08
12,TGTATCACGTGGGGTG,-0.01
13,AGAATCACGTGTGGTG,0.21
14,AGATGCACGTGTATGT,-0.06
15,TGAAGCACGTGGGACG,-0.23
16,GCACGCACGTGGGAGG,-0.13
17,TTTCGCACGTGGTGAC,0.15
18,GTTTGCACGTGATTGT,0.13
19,ATCGGCACGTGGGACA,0.01
20,GGGTCCACGTGATGGC,0.22
21,AAGGTCACGTGTGGGG,0.19
22,GATTACACGTGTGGCG,0.29
23,GGTTACACGTGAATGG,0.4
24,TGTTGCACGTGTTGGC,0.07
25,CTTATCACGTGGAGGG,0.16
26,TTTTTCACGTGAGATT,0.41

row,Sequence,relative binding free energy [kcal/mol]
1,CGTGGCACGTGTTACA,-0.02
2,GGTGGCACGTGTGTGA,0.03
3,GTTGCCACGTGGGTCG,-0.22
4,TGCGACACGTGATTGT,0.22
5,CTGGTCACGTGAGGAG,0.3
6,ATTATCACGTGGGGAC,0.06
7,TCTGTCACGTGAGAGG,0.23
8,CAGTTCACGTGATTTG,0.35
9,ATTGTCACGTGTAAAG,0.05
10,GCTGGCACGTGGCTTG,-0.16
11,AGAAACACGTGGGGCG,0
12,GTTTACACGTGTCTAA,0.23
13,AAAATCACGTGTGAGG,0.16
14,TTTATCACGTGTACGT,0.2
15,AGGTCCACGTGTGAGG,-0.01
16,TAGAACACGTGTAGGG,0.11
17,TGTTTCACGTGTTCTA,0.23
18,GGCATCACGTGGTGAG,0.05
19,GTTTTCACGTGTGGAC,0.42
20,ACTTACACGTGGGGGG,0.1
21,GGGTGCACGTGCTTGG,-0.1
22,CTTTACACGTGAAGGT,0.2
23,CGGGGCACGTGTGGGT,-0.02
24,GGTTACACGTGATAGT,0.27
25,ATACTCACGTGGGAGT,0.05
26,TCGGGCACGTGATTGT,-0.04

row,Sequence,relative binding free energy [kcal/mol]
1,GGGTTCACGTGAGGAG,0.48
2,TTTAACACGTGGTAGT,-0.05
3,GGATGCACGTGGGGCT,-0.03
4,GCGGTCACGTGCGAGG,0.09
5,CGGTTCACGTGTGGTA,0.29
6,GGATGCACGTGTATTA,-0.05
7,TGTTTCACGTGTTGAT,0.25
8,TGTTGCACGTGGTTAA,-0.07
9,AAATGCACGTGGGCTG,-0.25
10,TTTCACACGTGGTCTT,-0.01
11,TTTTGCACGTGTACGT,-0.06
12,TGATGCACGTGGGACT,-0.05
13,CGGTGCACGTGGAGTC,-0.05
14,TCTGTCACGTGCGTTT,0.13
15,GTTTTCACGTGCGGTT,0.28
16,TGTTGCACGTGCCTTT,-0.14
17,GTAATCACGTGCGGGG,0.11
18,TTCTACACGTGTCGGT,0.17
19,CTGTGCACGTGAATGT,0.11
20,CAGTTCACGTGTAGGT,0.22
21,TTTACCACGTGGGTAG,-0.19
22,GGTGGCACGTGAAAAT,0.3
23,GATACCACGTGGTGTT,-0.06
24,TTGGGCACGTGATCTA,-0.13
25,GAGTACACGTGTGGGT,0.17
26,CTGTGCACGTGTGTTC,-0.03

row,Sequence,relative binding free energy [kcal/mol]
1,GGCGACACGTGGGTTG,-0.02
2,TATTGCACGTGACATT,0.02
3,TAAAGCACGTGGTAAT,-0.13
4,GGTTTCACGTGGATGT,0.24
5,AGATTCACGTGTGATA,0.27
6,GCTTGCACGTGATGAT,0.29
7,ATGTTCACGTGAGACT,0.29
8,TCGTTCACGTGGGTAA,0.2
9,AGTGACACGTGATCGG,0.16
10,TTGGTCACGTGTCACG,0.25
11,AGAAGCACGTGAGTGT,0.17
12,TTTAACACGTGTCTGT,-0.1
13,TTCGTCACGTGTGGTG,0.1
14,GGGGGCACGTGATCTT,-0.02
15,AGGCTCACGTGTTTTG,0.23
16,TGTAGCACGTGCGTGG,-0.12
17,GGGTTCACGTGGATTA,0.27
18,CAAGACACGTGGGTAT,0.1
19,GGTGACACGTGTTGGC,0.16
20,GGTAGCACGTGAGGTT,0.28
21,GCTTGCACGTGGGGTC,-0.04
22,ACGTGCACGTGGAAGT,-0.09
23,TGTTCCACGTGATATT,0.22
24,AGGAGCACGTGGAGCT,-0.05
25,TTGATCACGTGTGGCT,0.05
26,GTGGGCACGTGCACGG,-0.06

row,Sequence,relative binding free energy [kcal/mol]
1,CAGTGCACGTGATGGT,0.21
2,TACGTCACGTGTTGGA,0.09
3,ATAAGCACGTGTAGGC,-0.04
4,TGATTCACGTGTTCGT,0.25
5,TGTATCACGTGCAGGG,0.15
6,CTGGCCACGTGTGGGT,-0.11
7,ATTTACACGTGTTCGT,0.16
8,AAATTCACGTGTGGGA,0.09
9,TTAGTCACGTGCTTAT,0.02
10,TGTTACACGTGTGCAG,0.12
11,TGGTTCACGTGCGGAA,0.3
12,GAATTCACGTGGGGCT,0.38
13,TATGACACGTGATTGG,0.17
14,GTTGCCACGTGTCGGG,0.01
15,TTATTCACGTGAGCTG,0.39
16,GTGGTCACGTGTAAAA,0.21
17,GCTTTCACGTGTATAT,0.35
18,ATCAGCACGTGTGAGG,-0.01
19,TTCGTCACGTGGCGAT,0.11
20,AGTAGCACGTGAGAGA,0.24
21,TTCAGCACGTGGATGG,-0.17
22,TTATCCACGTGCTGGT,0.1
23,TTAATCACGTGGGGGC,0.11
24,ATAAACACGTGTGGGA,0.04
25,CTAGTCACGTGGGGTC,-0.08
26,GGATACACGTGTATGG,0.17

row,Sequence,relative binding free energy [kcal/mol]
1,ATGTGCACGTGGTTCC,-0.09
2,GTAATCACGTGTGGAT,0.22
3,TTTAACACGTGATCGG,0.07
4,GTTATCACGTGGTCGA,0.08
5,TTCGTCACGTGCTGGT,-0.14
6,CTTGTCACGTGGTTTG,0.11
7,TGGGTCACGTGGTTAC,0.13
8,AGGTTCACGTGGATCT,0.16
9,TGTCTCACGTGATCGT,0.26
10,TTTTACACGTGAGCAT,0.31
11,AGCATCACGTGTATGG,0.25
12,AGTGCCACGTGTAGGT,0
13,GTTATCACGTGAGTCT,0.23
14,AGTGGCACGTGTCATT,-0.13
15,ATAGGCACGTGACTGT,-0.08
16,TCTTGCACGTGAGTCT,0.24
17,GTATCCACGTGGAGTT,0.22
18,GGGGGCACGTGCATTG,-0.08
19,GTGATCACGTGAGCTT,0.18
20,TGTGCCACGTGCGCGG,-0.31
21,TTTCTCACGTGGGAAG,0.2
22,TGATGCACGTGCGGGC,0.07
23,TTTTTCACGTGCACTT,0.15
24,CGTGTCACGTGATGTA,0.15
25,TTGTACACGTGTATGG,0.11
26,TTGAGCACGTGGGGGT,-0.18

row,Sequence,relative binding free energy [kcal/mol]
1,GGAGGCACGTGTCAGT,-0.12
2,CGTAGCACGTGTTTTG,-0.14
3,ACAGGCACGTGAGATG,0.15
4,ATTAGCACGTGTTTCG,-0.12
5,GAGTCCACGTGAGGGT,0.36
6,TCTTGCACGTGGATCG,0.06
7,GTGGGCACGTGCGGCT,-0.15
8,CTGTTCACGTGGCGTT,0.22
9,CCGTTCACGTGGTTGT,0.2
10,GAGAGCACGTGGTGGT,-0.13
11,TTTTTCACGTGATTGT,0.39
12,TTAGTCACGTGAGTGG,0.3
13,TTGTGCACGTGATCTA,0.01
14,ATGTGCACGTGGATAT,-0.18
15,TGATTCACGTGTATGA,0.22
16,AAGGGCACGTGTTGAG,-0.07
17,GAATGCACGTGATTTG,0.15
18,TGTACCACGTGTCTGG,-0.11
19,AGACGCACGTGGTTGG,-0.31
20,GATTTCACGTGGTGTG,0.21
21,TTGGGCACGTGGTTAT,-0.11
22,GCGTGCACGTGTAGGT,0.02
23,CAAGGCACGTGCGGGA,-0.08
24,ATGTGCACGTGTTATG,-0.02
25,TGGCGCACGTGGTGAA,-0.23
26,GTTATCACGTGGACTG,0.32

row,Sequence,relative binding free energy [kcal/mol]
1,ATCTTCACGTGGTGTG,0.19
2,GTTTGCACGTGGTGTT,-0.04
3,GGTAACACGTGTTGAC,0.21
4,TTATCCACGTGTTAGT,0.1
5,TCGTTCACGTGAAGGT,0.46
6,GACTGCACGTGTTATG,0.02
7,TAAAACACGTGTTGGG,0.16
8,GGTTGCACGTGCAGGA,-0.02
9,TTATCCACGTGTGTTG,-0.02
10,GTTTGCACGTGTCTCT,0.2
11,TTGTGCACGTGGTGCC,-0.08
12,TGGTGCACGTGGTTGA,0.07
13,AGGCTCACGTGGTCGT,0.04
14,TGTATCACGTGGGCCT,0.14
15,AGACGCACGTGGGGCG,-0.23
16,GCTTGCACGTGACGGT,0.16
17,TTTGTCACGTGGATAT,0.03
18,TAGGTCACGTGTGTGT,0.15
19,TTATCCACGTGAGGGA,0.19
20,TTGAGCACGTGGCGTG,-0.13
21,TCCGGCACGTGTTTGG,0
22,ATGGTCACGTGGCGGG,-0.11
23,TATGTCACGTGACTTG,0.03
24,TATGTCACGTGGCTAG,-0.1
25,TGCGGCACGTGATGTT,-0.06
26,GTGGTCACGTGATGTA,0.14

row,Sequence,relative binding free energy [kcal/mol]
1,AGTGCCACGTGGGGAA,-0.2
2,CGCGTCACGTGATGGG,0.11
3,GAGGCCACGTGTTGGC,0.18
4,GGTCGCACGTGCGGTT,-0.04
5,TTGCGCACGTGGGGTG,-0.21
6,TTAAGCACGTGTGTGA,-0.13
7,ATGCGCACGTGTGTTG,-0.19
8,TAAGTCACGTGCAGTA,0.07
9,TTGAGCACGTGGCTGT,-0.16
10,AGTCGCACGTGGGTAA,-0.26
11,AAGTGCACGTGCTTTT,-0.09
12,AGGAACACGTGGTTGG,-0.01
13,TGATACACGTGGAATT,0.24
14,TACAGCACGTGGATGT,0.02
15,TATGCCACGTGGAGTT,-0.1
16,GTATACACGTGAGTCG,0.37
17,CGTGGCACGTGGCACG,-0.14
18,GGCGCCACGTGGGTTT,-0.16
19,TGGTGCACGTGGTTAA,-0.1
20,GGTCTCACGTGGGGAT,0.14
21,AAGATCACGTGGTTAG,0.16
22,TGTACCACGTGGTGTG,-0.16
